Publication PMC8539892
These are yes or no findings as the source states them, for the method shown. For some of these results: In cells and extracts the contact can be indirect. Some results given as binding are weak or reduced against the parent protein; the word gives no strength. For some of these results: Sequences can lack the tags named with a protein.

Protein sequences, listed by entry. Tags and fused reporters are not part of them. Lines headed by an entry give the natural chain unless they say otherwise; changes in a name come on top. Residues count along the entry.
UniProt P06492, residues 177-240: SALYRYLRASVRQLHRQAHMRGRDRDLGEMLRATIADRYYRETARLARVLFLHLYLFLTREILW
UniProt P49336: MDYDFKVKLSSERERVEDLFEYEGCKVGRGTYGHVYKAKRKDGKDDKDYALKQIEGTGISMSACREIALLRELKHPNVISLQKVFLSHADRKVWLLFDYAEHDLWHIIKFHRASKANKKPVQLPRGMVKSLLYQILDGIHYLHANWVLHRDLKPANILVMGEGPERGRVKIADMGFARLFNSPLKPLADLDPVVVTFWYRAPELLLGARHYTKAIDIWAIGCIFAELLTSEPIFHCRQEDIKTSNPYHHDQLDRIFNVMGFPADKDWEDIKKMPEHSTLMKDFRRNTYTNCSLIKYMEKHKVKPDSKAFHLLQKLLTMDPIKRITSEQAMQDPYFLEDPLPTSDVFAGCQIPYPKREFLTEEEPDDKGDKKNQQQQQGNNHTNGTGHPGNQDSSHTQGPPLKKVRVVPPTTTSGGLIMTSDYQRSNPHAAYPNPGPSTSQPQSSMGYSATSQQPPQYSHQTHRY
UniProt P50750: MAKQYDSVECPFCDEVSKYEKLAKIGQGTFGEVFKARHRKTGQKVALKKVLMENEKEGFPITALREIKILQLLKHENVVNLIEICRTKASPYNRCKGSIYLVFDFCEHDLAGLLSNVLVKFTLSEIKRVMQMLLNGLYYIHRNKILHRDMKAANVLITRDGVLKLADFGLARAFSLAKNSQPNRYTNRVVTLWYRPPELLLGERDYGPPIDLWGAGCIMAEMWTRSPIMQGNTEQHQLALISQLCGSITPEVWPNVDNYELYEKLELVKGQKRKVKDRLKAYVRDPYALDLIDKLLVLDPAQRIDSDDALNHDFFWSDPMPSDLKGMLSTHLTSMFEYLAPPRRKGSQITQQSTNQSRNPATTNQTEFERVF
UniProt Q15131: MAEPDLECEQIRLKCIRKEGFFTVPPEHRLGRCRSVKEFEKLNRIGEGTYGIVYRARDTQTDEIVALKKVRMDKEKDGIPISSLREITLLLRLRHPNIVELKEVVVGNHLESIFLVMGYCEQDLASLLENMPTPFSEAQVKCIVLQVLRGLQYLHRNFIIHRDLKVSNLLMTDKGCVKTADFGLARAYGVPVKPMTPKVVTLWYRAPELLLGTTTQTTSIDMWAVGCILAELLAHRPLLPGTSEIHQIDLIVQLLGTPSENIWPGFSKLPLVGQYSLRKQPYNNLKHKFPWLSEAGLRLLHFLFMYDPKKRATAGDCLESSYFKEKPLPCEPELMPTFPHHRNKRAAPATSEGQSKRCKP
UniProt P21127: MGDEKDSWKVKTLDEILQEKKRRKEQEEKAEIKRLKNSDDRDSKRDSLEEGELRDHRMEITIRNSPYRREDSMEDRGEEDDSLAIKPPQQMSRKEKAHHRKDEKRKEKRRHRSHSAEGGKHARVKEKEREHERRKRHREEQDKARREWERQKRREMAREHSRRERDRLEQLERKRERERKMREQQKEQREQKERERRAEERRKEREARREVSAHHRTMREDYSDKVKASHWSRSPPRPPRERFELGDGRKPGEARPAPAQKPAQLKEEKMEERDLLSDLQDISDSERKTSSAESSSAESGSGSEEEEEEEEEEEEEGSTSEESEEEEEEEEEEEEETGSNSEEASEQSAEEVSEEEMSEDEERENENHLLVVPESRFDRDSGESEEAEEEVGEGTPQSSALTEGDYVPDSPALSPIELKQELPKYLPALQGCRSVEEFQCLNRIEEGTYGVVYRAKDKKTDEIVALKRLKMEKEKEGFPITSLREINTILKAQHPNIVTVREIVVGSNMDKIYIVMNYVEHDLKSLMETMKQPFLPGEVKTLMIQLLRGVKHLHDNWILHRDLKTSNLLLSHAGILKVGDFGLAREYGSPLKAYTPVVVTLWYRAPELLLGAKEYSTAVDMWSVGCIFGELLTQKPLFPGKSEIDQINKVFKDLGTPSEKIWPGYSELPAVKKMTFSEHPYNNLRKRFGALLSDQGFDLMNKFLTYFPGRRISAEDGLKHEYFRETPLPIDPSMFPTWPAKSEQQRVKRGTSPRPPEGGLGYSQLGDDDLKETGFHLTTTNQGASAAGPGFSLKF
UniProt Q14004: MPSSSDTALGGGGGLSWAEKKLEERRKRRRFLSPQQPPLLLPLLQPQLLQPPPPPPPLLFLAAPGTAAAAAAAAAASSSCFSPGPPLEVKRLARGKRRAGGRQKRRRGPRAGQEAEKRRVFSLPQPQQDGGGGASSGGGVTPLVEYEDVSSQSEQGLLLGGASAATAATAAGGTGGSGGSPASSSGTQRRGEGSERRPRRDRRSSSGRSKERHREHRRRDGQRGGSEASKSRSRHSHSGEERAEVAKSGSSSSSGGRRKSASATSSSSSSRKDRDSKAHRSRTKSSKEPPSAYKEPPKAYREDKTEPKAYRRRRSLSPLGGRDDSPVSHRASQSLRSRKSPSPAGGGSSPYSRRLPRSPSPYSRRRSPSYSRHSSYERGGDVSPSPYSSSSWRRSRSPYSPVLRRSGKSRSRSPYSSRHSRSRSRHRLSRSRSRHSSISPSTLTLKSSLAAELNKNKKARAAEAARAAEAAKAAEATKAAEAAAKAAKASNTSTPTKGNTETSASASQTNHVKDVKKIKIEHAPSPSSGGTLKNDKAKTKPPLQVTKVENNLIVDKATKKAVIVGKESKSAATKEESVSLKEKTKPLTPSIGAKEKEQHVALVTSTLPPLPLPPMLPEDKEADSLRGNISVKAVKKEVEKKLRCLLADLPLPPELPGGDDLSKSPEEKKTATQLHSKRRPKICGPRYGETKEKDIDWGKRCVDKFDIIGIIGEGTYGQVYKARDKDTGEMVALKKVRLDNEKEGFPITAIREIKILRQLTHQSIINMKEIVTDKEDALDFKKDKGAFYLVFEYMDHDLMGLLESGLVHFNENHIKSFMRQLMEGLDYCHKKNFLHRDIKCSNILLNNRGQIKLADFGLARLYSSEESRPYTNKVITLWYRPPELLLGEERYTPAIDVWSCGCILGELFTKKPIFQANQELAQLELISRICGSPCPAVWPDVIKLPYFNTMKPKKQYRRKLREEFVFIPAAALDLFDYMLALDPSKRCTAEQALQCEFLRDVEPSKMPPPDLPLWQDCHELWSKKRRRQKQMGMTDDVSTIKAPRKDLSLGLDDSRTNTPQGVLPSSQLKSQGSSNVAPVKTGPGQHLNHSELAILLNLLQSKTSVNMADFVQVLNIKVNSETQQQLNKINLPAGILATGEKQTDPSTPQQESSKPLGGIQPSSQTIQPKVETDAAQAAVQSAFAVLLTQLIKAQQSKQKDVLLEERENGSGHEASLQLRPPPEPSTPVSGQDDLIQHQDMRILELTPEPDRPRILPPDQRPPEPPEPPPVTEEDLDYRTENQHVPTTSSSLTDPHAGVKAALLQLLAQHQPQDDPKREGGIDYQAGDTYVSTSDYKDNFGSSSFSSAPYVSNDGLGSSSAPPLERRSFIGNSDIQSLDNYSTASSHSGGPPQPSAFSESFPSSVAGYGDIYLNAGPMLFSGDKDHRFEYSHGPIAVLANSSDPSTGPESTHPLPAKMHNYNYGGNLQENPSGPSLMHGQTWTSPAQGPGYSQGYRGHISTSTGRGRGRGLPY
UniProt O75909: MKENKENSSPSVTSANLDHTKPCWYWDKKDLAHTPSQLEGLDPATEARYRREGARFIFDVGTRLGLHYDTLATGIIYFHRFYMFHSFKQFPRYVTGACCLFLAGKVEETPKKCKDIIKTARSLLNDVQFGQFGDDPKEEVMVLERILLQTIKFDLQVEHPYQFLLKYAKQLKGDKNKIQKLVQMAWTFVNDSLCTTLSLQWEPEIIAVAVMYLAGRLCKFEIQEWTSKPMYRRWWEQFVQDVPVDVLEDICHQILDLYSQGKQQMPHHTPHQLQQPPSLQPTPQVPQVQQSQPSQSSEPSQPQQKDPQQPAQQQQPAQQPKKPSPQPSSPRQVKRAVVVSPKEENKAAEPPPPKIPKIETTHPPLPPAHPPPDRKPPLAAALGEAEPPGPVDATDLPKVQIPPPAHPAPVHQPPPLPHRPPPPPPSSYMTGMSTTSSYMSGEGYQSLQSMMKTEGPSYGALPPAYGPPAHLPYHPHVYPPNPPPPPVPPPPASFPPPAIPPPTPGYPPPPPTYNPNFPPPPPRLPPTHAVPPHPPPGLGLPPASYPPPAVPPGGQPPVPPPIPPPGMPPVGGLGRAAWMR
UniProt Q9Y5B9: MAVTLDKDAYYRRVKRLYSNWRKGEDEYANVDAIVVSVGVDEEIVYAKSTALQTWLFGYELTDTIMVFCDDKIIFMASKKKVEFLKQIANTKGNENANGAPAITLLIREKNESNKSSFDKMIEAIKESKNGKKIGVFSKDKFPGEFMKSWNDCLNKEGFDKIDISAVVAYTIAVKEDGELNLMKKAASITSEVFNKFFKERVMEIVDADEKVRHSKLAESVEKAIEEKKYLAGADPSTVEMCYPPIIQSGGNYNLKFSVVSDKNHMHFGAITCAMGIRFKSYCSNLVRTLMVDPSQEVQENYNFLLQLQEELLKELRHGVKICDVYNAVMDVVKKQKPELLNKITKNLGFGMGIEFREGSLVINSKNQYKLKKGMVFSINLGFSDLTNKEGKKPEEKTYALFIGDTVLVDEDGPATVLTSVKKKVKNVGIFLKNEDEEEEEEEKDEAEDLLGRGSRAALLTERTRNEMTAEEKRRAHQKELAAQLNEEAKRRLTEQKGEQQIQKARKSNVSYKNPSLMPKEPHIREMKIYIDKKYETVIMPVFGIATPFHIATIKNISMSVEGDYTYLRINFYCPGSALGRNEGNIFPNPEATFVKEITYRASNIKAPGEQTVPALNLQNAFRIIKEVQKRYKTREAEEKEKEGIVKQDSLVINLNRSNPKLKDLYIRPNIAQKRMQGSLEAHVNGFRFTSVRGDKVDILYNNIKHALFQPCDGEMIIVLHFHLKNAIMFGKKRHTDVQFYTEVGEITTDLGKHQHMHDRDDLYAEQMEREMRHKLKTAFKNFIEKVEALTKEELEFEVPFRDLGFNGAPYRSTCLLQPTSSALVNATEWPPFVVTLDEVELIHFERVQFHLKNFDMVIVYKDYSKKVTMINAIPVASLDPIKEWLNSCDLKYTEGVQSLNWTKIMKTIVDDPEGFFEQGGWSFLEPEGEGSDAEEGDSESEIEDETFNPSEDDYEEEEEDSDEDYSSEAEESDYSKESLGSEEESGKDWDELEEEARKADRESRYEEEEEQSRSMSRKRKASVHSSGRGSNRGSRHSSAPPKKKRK
UniProt O60563, residues 1-266: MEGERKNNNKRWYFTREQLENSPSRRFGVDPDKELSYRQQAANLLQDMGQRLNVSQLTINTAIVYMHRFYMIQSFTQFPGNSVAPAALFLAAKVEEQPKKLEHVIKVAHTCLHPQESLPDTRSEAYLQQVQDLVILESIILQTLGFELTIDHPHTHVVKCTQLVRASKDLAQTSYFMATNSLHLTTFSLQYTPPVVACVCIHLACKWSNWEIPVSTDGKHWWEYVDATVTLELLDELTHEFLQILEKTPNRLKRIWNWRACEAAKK

Experiments:
[1] = biological target: His-ICP22^CCR (HSV-1) (UniProt P04485); test: pull-down; His-ICP22^CCR (comparison His-IpgC) on nickel beads, HeLa nuclear extract diluted 1:1 with IP buffer, overnight; Western blot; only the target purified
[2] = biological target: T1, Flag-ICP22 full length (HSV-1 immediate-early protein ICP22) (HSV-1) (UniProt P04485); test: co-IP
T1 sequence: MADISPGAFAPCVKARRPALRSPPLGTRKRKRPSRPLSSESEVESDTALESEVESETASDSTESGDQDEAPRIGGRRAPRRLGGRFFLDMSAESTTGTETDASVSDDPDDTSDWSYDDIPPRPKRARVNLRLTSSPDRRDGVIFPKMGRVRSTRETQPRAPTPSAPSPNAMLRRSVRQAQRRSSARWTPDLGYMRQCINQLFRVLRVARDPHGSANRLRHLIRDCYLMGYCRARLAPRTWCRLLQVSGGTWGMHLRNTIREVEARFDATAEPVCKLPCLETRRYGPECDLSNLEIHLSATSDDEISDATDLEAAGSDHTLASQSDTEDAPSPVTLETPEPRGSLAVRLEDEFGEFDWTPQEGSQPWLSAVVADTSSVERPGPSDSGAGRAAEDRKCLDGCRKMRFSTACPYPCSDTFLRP

[3] = biological target: Flag-ICP22^CCR (core conserved region of HSV-1 ICP22) (HSV-1) (UniProt P04485); test: co-IP
[4] = biological target: Flag-VP16^CORE (HSV-1) (UniProt P06492); test: co-IP
[5] = biological target: His-ICP22^CCR (HSV-1) (UniProt P04485); test: pull-down; His-ICP22^CCR held on nickel beads; GST-tagged proteins from E. coli eluted with reduced glutathione and incubated one by one; Western blot with GST and His-tag antibodies; both purified

For CDK8 (from UniProt P49336 1-464), the binding [1] was “no binding”.

With CDK9 (from UniProt P50750 1-372) the binding [2] was “binds”, the binding [3] was “binds” and the binding [4] was “binds”. For the same molecule, the binding [1] was “binds”.

CDK10 (from UniProt Q15131 1-360) was tested, and the binding [1] was “no binding”.

With CDK11B (from UniProt P21127 1-795) the binding [1] was “binds”.

With CDK13 (from UniProt Q14004 1-1512) the binding [1] was “binds”.

Cyclin K (from UniProt O75909 1-580) was tested, and the binding [2] was “binds”, the binding [3] was “binds” and the binding [1] was “binds”.

In the case of “FACT complex (SPT16 and SSRP1) (from UniProt Q9Y5B9 1-1047; Q08945 1-709)”, the binding [1] is reported as “binds”.

With GST-CDK9^FL (from UniProt P50750 1-372) the binding [5] was “binds weakly”.

“GST-Cyclin T1^1-266 (from UniProt O60563 1-266) (domain or fragment)” was tested, and the binding [5] was “binds”.

B1: Cyclin L1 (protein, UniProt Q9UK58 1-526)
chain: MASGPHSTATAAAAASSAAPSAGGSSSGTTTTTTTTTGGILIGDRLYSEVSLTIDHSLIPEERLSPTPSMQDGLDLPSETDLRILGCELIQAAGILLRLPQVAMATGQVLFHRFFYSKSFVKHSFEIVAMACINLASKIEEAPRRIRDVINVFHHLRQLRGKRTPSPLILDQNYINTKNQVIKAERRVLKELGFCVHVKHPHKIIVMYLQVLECERNQTLVQTAWNYMNDSLRTNVFVRFQPETIACACIYLAARALQIPLPTRPHWFLLFGTTEEEIQEICIETLRLYTRKKPNYELLEKEVEKRKVALQEAKLKAKGLNPDGTPALSTLGGFSPASKPSSPREVKAEEKSPISINVKTVKKEPEDRQQASKSPYNGVRKDSKRSRNSRSASRSRSRTRSRSRSHTPRRHYNNRRSRSGTYSSRSRSRSRSHSESPRRHHNHGSPHLKAKHTRDDLKSSNRHGHKRKKSRSRSQSKSRDHSDAAKKHRHERGHHRDRRERSRSFERSHKSKHHGGSRSGHGRHRR
For B1, the binding [1] was “binds”.

B2: MEPCE (protein, UniProt Q7L2J0 1-689)
chain: MIEMAAEKEPFLVPAPPPPLKDESGGGGGPTVPPHQEAASGELRGGTERGPGRCAPSAGSPAAAVGRESPGAAATSSSGPQAQQHRGGGPQAQSHGEARLSDPPGRAAPPDVGEERRGGGGTELGPPAPPRPRNGYQPHRPPGGGGGKRRNSCNVGGGGGGFKHPAFKRRRRVNSDCDSVLPSNFLLGGNIFDPLNLNSLLDEEVSRTLNAETPKSSPLPAKGRDPVEILIPKDITDPLSLNTCTDEGHVVLASPLKTGRKRHRHRGQHHQQQQAAGGSESHPVPPTAPLTPLLHGEGASQQPRHRGQNRDAPQPYELNTAINCRDEVVSPLPSALQGPSGSLSAPPAASVISAPPSSSSRHRKRRRTSSKSEAGARGGGQGSKEKGRGSWGGRHHHHHPLPAAGFKKQQRKFQYGNYCKYYGYRNPSCEDGRLRVLKPEWFRGRDVLDLGCNVGHLTLSIACKWGPSRMVGLDIDSRLIHSARQNIRHYLSEELRLPPQTLEGDPGAEGEEGTTTVRKRSCFPASLTASRGPIAAPQVPLDGADTSVFPNNVVFVTGNYVLDRDDLVEAQTPEYDVVLCLSLTKWVHLNWGDEGLKRMFRRIYRHLRPGGILVLEPQPWSSYGKRKTLTETIYKNYYRIQLKPEQFSSYLTSPDVGFSSYELVATPHNTSKGFQRPVYLFHKARSPSH
For B2, the binding [1] was “binds”.
